The text below walks through data of publication PMC4336329 (PLoS ONE, 2015).

The whole screen tested about 310,000 compounds, of which about 14,000 (4.5%) showed an effect of 50% or more. The effect is printed as a negative number. Some of the results follow.
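Further: peak tail current of the secondary pulse compared with the same well before compound.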

human ether-à-go-go-related gene (hERG) potassium channel, sequence (Q12809 whole entry, looked up): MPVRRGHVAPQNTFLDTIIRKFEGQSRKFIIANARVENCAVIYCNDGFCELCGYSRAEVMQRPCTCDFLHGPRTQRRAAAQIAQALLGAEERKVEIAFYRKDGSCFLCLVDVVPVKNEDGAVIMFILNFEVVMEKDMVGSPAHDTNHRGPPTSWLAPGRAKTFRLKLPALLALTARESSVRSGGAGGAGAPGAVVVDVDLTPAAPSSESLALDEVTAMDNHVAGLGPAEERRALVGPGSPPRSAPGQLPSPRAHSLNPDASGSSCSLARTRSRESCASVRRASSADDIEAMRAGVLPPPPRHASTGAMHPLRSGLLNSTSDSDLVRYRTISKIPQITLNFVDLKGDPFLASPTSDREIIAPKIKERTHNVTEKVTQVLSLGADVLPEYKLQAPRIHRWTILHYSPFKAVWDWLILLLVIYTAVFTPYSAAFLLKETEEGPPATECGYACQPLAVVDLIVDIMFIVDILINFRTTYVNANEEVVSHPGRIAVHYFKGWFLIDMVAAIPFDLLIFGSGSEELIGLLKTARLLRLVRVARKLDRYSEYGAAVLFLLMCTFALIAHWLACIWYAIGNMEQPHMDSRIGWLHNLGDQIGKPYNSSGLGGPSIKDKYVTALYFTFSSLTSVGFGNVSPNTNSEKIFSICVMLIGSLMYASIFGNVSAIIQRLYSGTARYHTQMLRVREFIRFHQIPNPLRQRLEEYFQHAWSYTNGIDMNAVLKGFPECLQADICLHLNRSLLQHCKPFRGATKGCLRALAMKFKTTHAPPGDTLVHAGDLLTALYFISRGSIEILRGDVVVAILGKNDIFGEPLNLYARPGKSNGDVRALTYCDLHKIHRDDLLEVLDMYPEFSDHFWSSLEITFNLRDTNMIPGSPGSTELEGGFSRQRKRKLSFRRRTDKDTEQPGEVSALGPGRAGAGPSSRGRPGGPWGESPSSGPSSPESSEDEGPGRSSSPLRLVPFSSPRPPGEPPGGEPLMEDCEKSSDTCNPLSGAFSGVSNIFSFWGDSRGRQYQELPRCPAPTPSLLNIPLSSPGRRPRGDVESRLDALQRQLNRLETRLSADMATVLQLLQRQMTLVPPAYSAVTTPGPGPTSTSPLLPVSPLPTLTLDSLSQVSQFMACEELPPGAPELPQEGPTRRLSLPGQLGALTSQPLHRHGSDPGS

This assay has as its target human ether-à-go-go-related gene (hERG) potassium channel (human, UniProt Q12809). Briefly: primary screen, population patch clamp on CHO cells stably expressing hERG.
`COc1ccc2nc(-c3ccccc3)cc(C(=O)OCC(=O)N3CC(C)OC(C)C3)c2c1` (stereo not drawn): the “hERG current change (%, negative = inhibition) at 10uM” value is on record as 0.702%.

Turning to `Cc1noc(C)c1S(=O)(=O)N1CCCC(C(=O)NCCc2ccc(Cl)cc2)C1` (stereo not drawn), the “hERG current change (%, negative = inhibition) at 10uM” value is -9.43%.

For the compound `COC(=O)c1cc(OC)c(OC)cc1NC(=O)Nc1ccc(OC)cc1`, the “hERG current change (%, negative = inhibition) at 10uM” value is on record as 7.34%.

As to `COCCN(C(=O)COC(=O)c1cc2c(s1)CCC2)c1c(N)n(Cc2ccccc2)c(=O)[nH]c1=O`, the “hERG current change (%, negative = inhibition) at 10uM” value is recorded as -4.61%.

As to `COc1ccc(C(CCO)NC(=O)c2cccs2)cc1OC` (stereo not drawn), the “hERG current change (%, negative = inhibition) at 10uM” value is recorded as -1.34%.

With `O=C(NCc1ccccn1)C12CC3CC(CC(C3)C1)C2`, the “hERG current change (%, negative = inhibition) at 10uM” value was 13.8%.

As for `COc1ccccc1C(CNC(=O)c1ccc(-c2ccccc2Cl)o1)N1CCCC1` (stereo not drawn), the “hERG current change (%, negative = inhibition) at 10uM” value was -72.2%.

Regarding `COCC(=O)Nc1cccc2ccccc12`, the “hERG current change (%, negative = inhibition) at 10uM” value was -9.72%.

Turning to `COc1ccc(Oc2cccc(Cl)c2CNC(=O)c2ccccc2C(=O)O)cc1`, the “hERG current change (%, negative = inhibition) at 10uM” value is 4.98%.

On to `Cc1ccc(-n2ncc(C#N)c2/N=C/N2CCOCC2)cc1`, for which the “hERG current change (%, negative = inhibition) at 10uM” value is recorded as -10.2%.

For the compound `COc1ccc(CCn2c(NN=C3CCCC3)nc3c2c(=O)[nH]c(=O)n3C)cc1`, the “hERG current change (%, negative = inhibition) at 10uM” value was -1.63%.

Regarding `CCOC(=O)C1=C(CP(=O)(c2ccccc2)c2ccccc2)NC(=O)NC1c1ccc(OC)cc1` (stereo not drawn), the “hERG current change (%, negative = inhibition) at 10uM” value is reported as -26.4%.

On to `Cc1ccc(NC(=S)NC(NC(=O)Cc2cccc3ccccc23)C(Cl)(Cl)Cl)cc1` (stereo not drawn), for which the “hERG current change (%, negative = inhibition) at 10uM” value amounted to 12.1%.

As to `COCCCNS(=O)(=O)c1ccc(OC)c(Cl)c1Cl`, the “hERG current change (%, negative = inhibition) at 10uM” value was found to be 0.957%.

Take `CC1(C)CC(=O)c2sc(NC(=O)Cc3cccs3)nc2C1`: the “hERG current change (%, negative = inhibition) at 10uM” value is -0.976%.

For `CC(NC(=O)CN1CCN(Cc2ccc(Cl)cc2)C1=O)c1ccc2c(c1)OCCO2` (stereo not drawn), the “hERG current change (%, negative = inhibition) at 10uM” value is on record as -10.4%.

With `CCN(CC)c1nc(N)c2c(N)n(-c3ccccc3C)c(=S)c(C#N)c2c1C#N`, the “hERG current change (%, negative = inhibition) at 10uM” value amounted to 10.1%.

As for `NNC(=S)NC1CC2CC1C1C=CCC21` (stereo not drawn), the “hERG current change (%, negative = inhibition) at 10uM” value is reported as 9.2%.

Take `COc1ccccc1N1CC(C(=O)Nc2nnc(SC)s2)CC1=O` (stereo not drawn): the “hERG current change (%, negative = inhibition) at 10uM” value is recorded as 16.9%.

In the case of `O=C(CCN1CCOCC1)NNC(=O)Nc1cccc(Cl)c1`, the “hERG current change (%, negative = inhibition) at 10uM” value worked out at 21.2%.

`CCOC(=O)C1=C(C)NC(=O)NC1c1ccc2c(c1)OCO2` (stereo not drawn): the “hERG current change (%, negative = inhibition) at 10uM” value was -2.72%.

Turning to `COc1ccc(NC(=O)Nc2cnccn2)cc1`, the “hERG current change (%, negative = inhibition) at 10uM” value was found to be 9.12%.

As for `COc1ccccc1C(=O)Nc1ccc(NC(=O)c2ccco2)cn1`, the “hERG current change (%, negative = inhibition) at 10uM” value is recorded as 9.25%.

As to `COc1ccccc1N(CC(=O)Nc1ccccc1C)S(C)(=O)=O`, the “hERG current change (%, negative = inhibition) at 10uM” value is -0.331%.

Turning to `O=C(NC1CCCCCC1)c1cccnc1Sc1ccccc1`, the “hERG current change (%, negative = inhibition) at 10uM” value is listed as -15.4%.

`Br.CC(Sc1nnc(COc2ccc3ccccc3c2)n1C)C(=O)O` (stereo not drawn): the “hERG current change (%, negative = inhibition) at 10uM” value is on record as 8.48%.

In the case of `Cn1cccc1C(=O)NC(=O)COC(=O)C12CC3CC(CC(O)(C3)C1)C2`, the “hERG current change (%, negative = inhibition) at 10uM” value is reported as 3.15%.

In the case of `COc1ccc(NC(=O)c2ccc3c(c2)C(=O)N(CC2CCCO2)C3=O)cc1O` (stereo not drawn), the “hERG current change (%, negative = inhibition) at 10uM” value is given as -16%.

As for `COc1ccc(N2C(=O)CSCC2=O)cc1OC`, the “hERG current change (%, negative = inhibition) at 10uM” value was determined as 8.4%.

Regarding `COc1ccc(NC(=O)c2ccc(-n3nc(C)c[n+]3[O-])cc2)cc1`, the “hERG current change (%, negative = inhibition) at 10uM” value was 0.163%.

Take `CC(C)CC(CO)N1CCN(C(=O)c2cccc(C(F)(F)F)c2)CCC1=O` (stereo not drawn): the “hERG current change (%, negative = inhibition) at 10uM” value amounted to 6.77%.

For the compound `COc1cc(NC(=S)NC(=O)C(C)C)ccc1NC(=O)c1cc2ccccc2o1`, the “hERG current change (%, negative = inhibition) at 10uM” value is recorded as -1.06%.

As to `Cc1nc(NC(=O)C2CC2)sc1C(=O)Nc1ccccc1`, the “hERG current change (%, negative = inhibition) at 10uM” value was found to be 11.6%.

As to `COc1ccc(OCC(=O)N/N=C/c2ccc(OC)c(OC)c2C(=O)O)cc1`, the “hERG current change (%, negative = inhibition) at 10uM” value is -0.0673%.

As to `CCOC(=O)C1CCN(CC(O)COCc2cccs2)CC1` (stereo not drawn), the “hERG current change (%, negative = inhibition) at 10uM” value is listed as -38%.

Consider `CCC(C(=O)Nc1sc(C(N)=O)c(C)c1C(=O)OC)c1ccccc1` (stereo not drawn), for which the “hERG current change (%, negative = inhibition) at 10uM” value was -17.5%.

Take `CCC1(c2ccc(F)cc2)NC(=O)N(CC(=O)NCc2ccc(C)cc2)C1=O` (stereo not drawn): the “hERG current change (%, negative = inhibition) at 10uM” value is listed as 7.48%.

Regarding `CC(C)CN1C(=O)C(=O)N(CC(=O)c2ccc3c(c2)OCO3)C1=O`, the “hERG current change (%, negative = inhibition) at 10uM” value is -12.4%.

In the case of `COc1ccc(C2CC(O)(C(C)(C)O)NO2)cc1` (stereo not drawn), the “hERG current change (%, negative = inhibition) at 10uM” value was determined as 8.55%.

As for `O=C(O)/C(=C\c1ccccc1)c1ccc2ccccc2c1`, the “hERG current change (%, negative = inhibition) at 10uM” value turned out to be 8.85%.

Turning to `O=C(CN1C(=O)C2CCCCC2C1=O)Nc1ccc(S(=O)(=O)Nc2ncccn2)cc1` (stereo not drawn), the “hERG current change (%, negative = inhibition) at 10uM” value is reported as 29.9%.

For `CS(=O)(=O)N(CC(=O)N/N=C/c1cc([N+](=O)[O-])ccc1Cl)c1ccccc1`, the “hERG current change (%, negative = inhibition) at 10uM” value is on record as 13.3%.

For the compound `COc1cccc(CC(NC(C)=O)C(=O)NC2CCN(C(=O)C3CC3)CC2)c1OC` (stereo not drawn), the “hERG current change (%, negative = inhibition) at 10uM” value was determined as 24.3%.

With `CC(C)(C)C(=O)N1CCN(c2nc3ccccc3o2)CC1`, the “hERG current change (%, negative = inhibition) at 10uM” value was -19.3%.

For the compound `Cc1ccsc1C(=O)C1CCCN(Cc2cccn2-c2ccc(Cl)cn2)C1` (stereo not drawn), the “hERG current change (%, negative = inhibition) at 10uM” value is on record as -77.6%.

As to `Cc1ccccc1C(=O)N1CCC(C(=O)Nc2ccc(F)cc2)CC1`, the “hERG current change (%, negative = inhibition) at 10uM” value was -9.14%.

As to `CC(=O)C[C@H]1c2ccccc2S(=O)(=O)N1C1CCCCC1`, the “hERG current change (%, negative = inhibition) at 10uM” value is listed as -4.43%.

Consider `C=CCn1c(=S)[nH]c2sccc2c1=O`, for which the “hERG current change (%, negative = inhibition) at 10uM” value stood at 11.7%.

Consider `Cl.NCCCC[C@H](NC(=O)C1CCNCC1)c1nnc([C@@H](N)CO)o1`, for which the “hERG current change (%, negative = inhibition) at 10uM” value is reported as 22%.

Consider `Cc1cc(C)cc(OCC(=O)O/N=C(\N)c2ccccc2Cl)c1`, for which the “hERG current change (%, negative = inhibition) at 10uM” value is given as -13.6%.

In the case of `CC(=O)Nc1ccc(NC(=O)c2ccccc2N(C)S(=O)(=O)c2ccc(C)cc2)cc1`, the “hERG current change (%, negative = inhibition) at 10uM” value was -0.403%.

With `CCOC(=O)C1CCN(S(=O)(=O)c2ccc(OCC(=O)OC)cc2)CC1`, the “hERG current change (%, negative = inhibition) at 10uM” value was -9.54%.

Consider `COC(=O)CNC(=O)CSc1nnc2cc(C)c3ccccc3n12`, for which the “hERG current change (%, negative = inhibition) at 10uM” value is given as -1.23%.

In the case of `O=C(NCc1ccccn1)c1cc(Cl)ccc1OCc1ccccc1`, the “hERG current change (%, negative = inhibition) at 10uM” value is -35.5%.

Regarding `COc1ccc(NC(=O)Cn2cccc2)cc1Cl`, the “hERG current change (%, negative = inhibition) at 10uM” value is on record as 1.53%.

`O=C(/C=C/Nc1ccccc1)c1ccccc1`: the “hERG current change (%, negative = inhibition) at 10uM” value is on record as -0.634%.

For `O=C(Nc1ccccc1)N(c1ccccc1)C1C=CS(=O)(=O)C1` (stereo not drawn), the “hERG current change (%, negative = inhibition) at 10uM” value is 9.87%.
